Experimental data taken from the supplement of paper PMC11417369.
± gives the standard deviation of the averaged measurements. The list shows a part of the results.

system: PfAP2-LT AP2 domain (GST-tagged); experiment: gcPBM binding intensity (ln(normalized median fluorescence intensity)); higher = stronger DNA binding
Outline: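 Plasmodium falciparum DNA-binding domains carrying a GST tag were expressed in E. coli and applied for 1 h, at about 25 μg on average, to an Agilent 4 × 180k array. The array held primer-extended double-stranded 36-bp intergenic genomic probes together with negative controls, and binding took place in 1× PBS with 1% milk, 0.2 mg/ml BSA, 0.5% salmon testes DNA and 0.03% Triton X-100. An Alexa488 anti-GST antibody detected bound protein, and the array was scanned at 488 nm. Binding intensity is taken as the highest Masliner-normalised natural-log median intensity across replicate spots of either probe orientation.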

Sequence	gcPBM binding intensity (ln)
TATATATATATATTCACACATAAAAATAAAATAAAA [CACACA_site4774]	8.72 ± 0.43
TTTTTAAATAACCTATATATTATTATGAAACATAAA [CACACA_negctrl_site916]	8.1 ± 0.47
GTATAATATATTTATAGTACATAATTATTTATAAAT [XGTACX_site1826]	8.62 ± 0.5
TTAATATTGTATCCAAGTACACAAATTATTATATTT [XGTACX_site8067]	8.71 ± 0.47
CAATATTATTATATTTGTACACATGCGTATTTTTTA [XGTACX_site4154]	8.9 ± 0.46
ATATTATGTGATTGTGCACACTGGAGATTTTTTTTA [CACACA_site1453]	9.18 ± 0.46
CCCGTAAATACAAAAAGTACAAAAGTTCATCTTATA [XGTACX_site1154]	8.94 ± 0.41
CATGATATATAAATATGTACATATATATATATATAT [XGTACX_site1760]	9.78 ± 0.28
TAATAATAATATAAAATACACACCTATTATTTTTAC [CACACA_site4003]	8.73 ± 0.37
ATTGATTTTTAATATACACACATAAGTACCACAAAA [CACACA_site339]	8.85 ± 0.3
ACATTAATATAAAGCACACATATATATAATATATAT [CACACA_site508]	8.94 ± 0.28
AAAAATATAAACTGCACACACAAAAAAAAAAGAGAA [CACACA_site1367]	9.51 ± 0.36
TATAACATATTTATATATGACATTATCTATTCATTT [CACACA_negctrl_site864]	8.74 ± 0.53
ATAAAAAAATATGTAAACATATATATGTATTTATGT [CACACA_negctrl_site1517]	8.89 ± 0.45
TTAAAATAAAGAGCAGTGCGCATATTTTGTTATTAT [GTGCAC_site9753]	8.88 ± 0.47
TTTTTATATTTTATTAGTACTTATTATATATATAAT [XGTACX_site4900]	8.69 ± 0.4
TTTTTTTTTAAAGAAAATAAAAATATGTACTTGACA [CACACA_negctrl_site1113]	8.18 ± 0.4
AAACAATTTTTATTTTGTACATAACAATATATTTAT [XGTACX_site1375]	8.7 ± 0.37
CATAAAAATGTATCAAGTACACATTTATTTATCCAT [XGTACX_site152]	8.73 ± 0.4
GTATAACACAAGTGAAGTACAGGGGTAAACATTTAT [XGTACX_site3203]	9.13 ± 0.45
TACAGATAAAAGTACACACACACACCGATATATATA [CACACA_site4675]	10.12 ± 0.099
AATTTAAATTCATCACGTACATACGTGAATATACAC [XGTACX_site5220]	8.91 ± 0.52
ATTTTACATATTTGCACACATATATTTATATACATA [CACACA_site854]	9.26 ± 0.38

Sequence	gcPBM binding intensity (ln)
TTATTTGTTTAATATGCATGCTAAAAGGGTTGATGT [TGCATGCA_site581]	8.77 ± 0.52
GAGTAAAACAAATATACACACCATAAAGTTATAAAA [CACACA_site5008]	9.15 ± 0.39
AATATAAAAATGCACACACACAAAAAAAAAAAAAAA [CACACA_site6546]	9.51 ± 0.42
TTTAAAATATTGTATTGTACGCAATAAAAAATACCA [XGTACX_site182]	8.51 ± 0.43
ATTAAATAAAATCATGCACACAATATATATTTTAAG [CACACA_site2495]	8.79 ± 0.45
ATAAGCATCTTTTGTGTGCACATAACAAAAAAAAAA	9.07 ± 0.4
TCTAACATATCTTTAATACACACTTAAAAAAGTACT [CACACA_site652]	8.55 ± 0.41
ATTTATCTATATATATGTACATATTATTTTTGTGGT [XGTACX_site7390]	9.02 ± 0.49
ATAAAAAAATATAAATGTACATATATATATATATAT [XGTACX_site5620]	9.39 ± 0.38
GATATACAATTTAAGTGTACTATAATAAAATATATA [XGTACX_site3013]	8.62 ± 0.39
TATATTAATTCGTTTTGTACACACATAATGAATAAT [XGTACX_site4618]	8.95 ± 0.36
TGAGAAAGCGCATATTGTACTATATATTTTAACCAC [XGTACX_site4098]	9.03 ± 0.34
AATCCATTCTATTTTTTACACACGTATGTAAATATT [CACACA_site8860]	9.14 ± 0.37
AATATATATGGACATGCATGGACATAATAATCTATT [TGCATGCA_site838]	9.04 ± 0.31
GAAAATAATGTTACATGTACGAATATGTAACTATTG [XGTACX_site6833]	8.76 ± 0.43
ATAGATATACATATCACACATATATATATATATATA [CACACA_site4985]	9.765 ± 0.05
AAATACATATATACATGTACATAAATATATATATAT [XGTACX_site5367]	9.15 ± 0.19
TAAGGTAGTTCTGTATCACACACATATATATATATA [CACACA_site8693]	9.71 ± 0.2
TAATTAAAATTAAGAAGTACATTTTACTTTTAATGC [XGTACX_site5120]	8.32 ± 0.33
AAAAAATACTTATAAAGTACTAATATATATAAGCAG [XGTACX_site743]	8.71 ± 0.42
GAGAAATTTATACATACACACATATATATATTATAT [CACACA_site4038]	9.08 ± 0.4
TATCATGTTTTTATGGTGCATGAAATCACACATTGA	8.72 ± 0.43
AATACAAACCAAAAAGTAAATACATCAACATGATCA [CACACA_negctrl_site140]	8.99 ± 0.42

Sequence	gcPBM binding intensity (ln)
TTTATTAATAAGAAATGTACACAAAATTATTTCCAA [XGTACX_site5970]	8.45 ± 0.43
ATAGAGTCATTCCTCACACACACGCTATATGAATAG [CACACA_site2047]	9.46 ± 0.28
TGGCACTAAAAAAATAAACACACAGATTTATATAAT [CACACA_site8386]	8.88 ± 0.53
CCTGAAATTTTATTATGTACATATTATAAAATGATT [XGTACX_site1434]	8.48 ± 0.42
ATAACCACATAAAATATAATTATATATATATATATA [CACACA_negctrl_site603]	9.19 ± 0.36
ATTCCTCCCATGGAATGTACTCATCAAATAAATAAA [XGTACX_site6543]	8.46 ± 0.42
TACACCATGATACATACACACAGACATATACTCATT [CACACA_site4708]	9.3 ± 0.35
TCCAAATGTTTGCGTTGTACTCTTTTTTTAAAACTA [XGTACX_site5148]	8.79 ± 0.54
AATAAAAAGGAAAGGTATATGTGTGCCCTTGTGTTA [TGCATGCA_negctrl_site83]	8.99 ± 0.42
AAATTTTCATGTGTTGCATGCTGAACTATTTTATCA [TGCATGCA_site856]	8.9 ± 0.37
AAGGAATATATATACATACACACATATATATATATA [CACACA_site1665]	9.81 ± 0.3
AGTGGATGAGGACATACACACACACCGAAGTTGATA [CACACA_site9132]	9.48 ± 0.47
AAAAAAAAAAAAAAAAAAAAAAATATATATATATAT [XGTACX_negctrl_site33]	9.49 ± 0.2
ATATAATAAATATATTGTACATATGAATCTACTAAA [XGTACX_site7610]	8.65 ± 0.46
TAAAAAATGATAGAAGTGCATAAAATAATATATATA [GTGCAC_site9904]	8.77 ± 0.55
GACTTGAAGAAATAAGTGCAGAGTTTTATTTTAATT [GTGCAC_site9912]	8.64 ± 0.57
TTTCTATTTCCTTCACATCTTTTCATCTTTTTTTTT [CACACA_negctrl_site1110]	8.71 ± 0.43
AAAAAATTCCTATATACACACACGCACATATTTATA [CACACA_site6192]	9.43 ± 0.28
AAATAAATAAAAAACACACACAAATAAATAAATATA [CACACA_site2249]	9.46 ± 0.39
TATTTTTTCCTTTGTTTTTTAAACTATCTTAACTAA [XGTACX_negctrl_site519]	8.52 ± 0.5
ATTTATTAAATAAAAAGTACAAAATAAGAAAGAAGA [XGTACX_site6935]	8.79 ± 0.57
ATATATAATATAATATGTACATAAAATTTTAACATT [XGTACX_site5773]	8.93 ± 0.49
TTATATATATCTAATTGTACAATATTATGTTCATTA [XGTACX_site7479]	8.74 ± 0.44

Sequence	gcPBM binding intensity (ln)
TATATTCCCTTAATCACACATAAATAAAAAAAAATA [CACACA_site6094]	8.47 ± 0.42
AAAAAAACAGTGAATGCACACATTTAAGATCCATAT [CACACA_site3148]	9.13 ± 0.41
TACATACATACAGGAGTGCATATATCACAATTATTA	8.92 ± 0.37
AAAAAAAAAAAAACTACACACATACAAATATTTATA [CACACA_site5430]	9.07 ± 0.52
TATTTCCTTTTTCTTGTTATTCATGAGAAAAAATGA [CACACA_negctrl_site482]	8.19 ± 0.35
GAAATTTTTAATGTGGTGCACAGGAAATTTTTTCTT	8.69 ± 0.45
AAAATAATAATAGGCACACATATATATATATATATA [CACACA_site2058]	9.99 ± 0.21
AAGAATCATATTTAAACACACATACAGATATATATA [CACACA_site5787]	8.89 ± 0.42
ACGACTAAATATATGAGTACATATATATATAAATAT [XGTACX_site7522]	8.88 ± 0.47
TGCAAAAAATTCCACACACACACACCCATATAAATA [CACACA_site1230]	9.9 ± 0.028
TCTAAAATAAATAATGCATGTTAAAAAAAAATATAT [TGCATGCA_site562]	8.59 ± 0.43
AATTTGGTGTGTGTAAAAGTATGTGTCTATATTTAT [GTGCAC_negctrl_site166]	9.55 ± 0.19
AGTTATATGATTAATACACACAACAAATGTTTCTTC [CACACA_site1092]	8.99 ± 0.4
ATGTATGTTTATTACTATTTTGAGAATAGACTATAA [CACACA_negctrl_site1366]	8.46 ± 0.41
AAGAAAATAAAAAATAAGCATAATATGATATGATAT [TGCATGCA_negctrl_site196]	8.94 ± 0.46
TTTCTTTATAAATTAATATTCACAACACAAAATATA [CACACA_negctrl_site450]	8.24 ± 0.47
AAAAATTTGGCATACACACACACACCGACACAGACA [CACACA_site4489]	10 ± 0.23
GTGCATATAAGGAAGTGTACGAAAAAAAATATTCCA [XGTACX_site8490]	8.89 ± 0.42
CAAATATGTCTTATTCGTACACATATATATATATAT [XGTACX_site8817]	9.45 ± 0.31
TCTTTTAGTTTTATCCACATAATAAAAAGCAAAAAA [GTGCAC_negctrl_site368]	8.25 ± 0.55
